# Laboratory results reported in the supplement of paper PMC7826260.
# Some of the results follow. The data describe in vitro nicking of single-stranded DNA by Rep domains for 1 h at 37 °C with 3 µM enzyme; only the middle of the 90-letter strands is printed. Uncut reads are compared with the no-enzyme pool on a log2 scale; more negative means more cut, near 0 not cut, and no call is made. Because reads are shares of a total, they shift together; uncut strands gain when others are lost, and binding without cutting may add a little.
# Assays:
# Experiment in all cases: uncleaved DNA left, log2 of reads against the no-enzyme library (log2 ratio); higher = less cleavage (more negative = more Rep cleavage of the k-mer); sequences stand for … in CTCGTCCG…ACCGGAGA
# [1] = test system: T1, Rep nickase domain of Muscovy duck circovirus
# T1 sequence (Rep 1-111, printed without the tag): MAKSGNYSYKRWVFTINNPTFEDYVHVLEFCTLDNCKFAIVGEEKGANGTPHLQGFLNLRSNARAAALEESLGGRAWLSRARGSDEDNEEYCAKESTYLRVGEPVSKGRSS
# Description: (§1)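 A pool of 90-nt single-stranded DNAs with seven random bases just before the constant AC of the nick site (name = the seven bases) was cut by 3 µM recombinant His6-SUMO-tagged Rep nickase domain (300 nM DNA, 50 mM HEPES pH 8.0, 50 mM NaCl, 1 mM MnCl2, 1 h, 37 °C, three replicates). Uncut DNA was amplified and sequenced.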
# [2] = test system: T2, Rep nickase domain of banana bunchy top virus
# T2 sequence (Rep 1-94, printed without the tag): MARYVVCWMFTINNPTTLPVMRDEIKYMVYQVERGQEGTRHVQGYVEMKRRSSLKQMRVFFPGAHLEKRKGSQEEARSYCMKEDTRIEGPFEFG
# Description: as §1
# [3] = test system: T3, Rep nickase domain of cabbage leaf curl virus
# T3 sequence (Rep 1-116, printed without the tag): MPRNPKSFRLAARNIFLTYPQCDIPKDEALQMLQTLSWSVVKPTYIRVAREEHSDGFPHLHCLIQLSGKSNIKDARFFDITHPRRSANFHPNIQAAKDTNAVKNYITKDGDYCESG
# Description: as §1
# [4] = test system: T4, Rep nickase domain of chickpea chlorotic dwarf virus
# T4 sequence (Rep 1-124, printed without the tag): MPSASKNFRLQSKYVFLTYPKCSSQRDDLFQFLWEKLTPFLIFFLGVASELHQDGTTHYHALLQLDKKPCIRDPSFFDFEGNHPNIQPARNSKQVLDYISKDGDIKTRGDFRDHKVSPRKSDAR
# Description: as §1
# [5] = test system: T5, Rep nickase domain of faba bean necrotic yellows virus
# T5 sequence (Rep 1-98, printed without the tag): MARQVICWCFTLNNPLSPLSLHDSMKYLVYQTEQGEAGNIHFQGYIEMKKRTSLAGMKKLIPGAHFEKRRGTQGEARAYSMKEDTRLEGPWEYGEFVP
# Description: as §1
# [6] = test system: T6, Rep nickase domain of maize striate mosaic virus
# T6 sequence (Rep 1-117, printed without the tag): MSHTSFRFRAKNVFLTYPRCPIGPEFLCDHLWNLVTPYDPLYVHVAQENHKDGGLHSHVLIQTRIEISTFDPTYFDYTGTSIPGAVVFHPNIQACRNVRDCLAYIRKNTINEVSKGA
# Description: as §1
# [7] = test system: T7, Rep nickase domain of porcine circovirus 2
# T7 sequence (Rep 2-116, printed without the tag): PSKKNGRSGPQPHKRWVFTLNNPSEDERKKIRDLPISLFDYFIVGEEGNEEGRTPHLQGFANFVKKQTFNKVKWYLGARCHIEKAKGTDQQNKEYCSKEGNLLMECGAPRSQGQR
# Description: as §1
# [8] = test system: T8, Rep nickase domain of tomato golden mosaic virus
# T8 sequence (Rep 1-124, printed without the tag): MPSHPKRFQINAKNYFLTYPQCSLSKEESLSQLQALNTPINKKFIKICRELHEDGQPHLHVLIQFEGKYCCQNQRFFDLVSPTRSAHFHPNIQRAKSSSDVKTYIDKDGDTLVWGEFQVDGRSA
# Description: as §1
# [9] = test system: T9, Rep nickase domain of tomato yellow leaf curl virus
# T9 sequence (Rep 1-136, printed without the tag): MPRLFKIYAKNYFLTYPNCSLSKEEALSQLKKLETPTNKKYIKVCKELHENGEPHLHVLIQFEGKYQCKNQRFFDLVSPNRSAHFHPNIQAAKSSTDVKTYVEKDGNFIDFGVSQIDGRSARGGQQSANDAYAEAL
# Description: as §1
# [10] = test system: T10, Rep nickase domain of wheat dwarf virus
# T10 sequence (Rep 1-137, printed without the tag): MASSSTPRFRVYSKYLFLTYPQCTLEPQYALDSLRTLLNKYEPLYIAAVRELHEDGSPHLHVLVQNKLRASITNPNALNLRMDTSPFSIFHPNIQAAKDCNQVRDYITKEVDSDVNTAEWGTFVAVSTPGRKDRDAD
# Description: as §1
Sequence,uncleaved DNA left (log2) [1],uncleaved DNA left (log2) [2],uncleaved DNA left (log2) [3],uncleaved DNA left (log2) [4],uncleaved DNA left (log2) [5],uncleaved DNA left (log2) [6],uncleaved DNA left (log2) [7],uncleaved DNA left (log2) [8],uncleaved DNA left (log2) [9],uncleaved DNA left (log2) [10]
TCGCTGG,-0.026,-0.139,0.105,0.462,0.0659,0.357,0.0566,0.0324,0.135,-0.0355
TTTCCTA,-0.07,0.0149,0.0534,-0.571,-0.00389,0.117,-0.446,-0.0927,-0.0145,-0.0254
AGGACAC,0.0962,0.194,0.902,2,0.0382,2.16,0.261,0.116,0.0981,0.207
TACGACC,0.132,0.0787,0.0454,0.211,0.131,-0.165,0.103,0.0519,0.0747,0.1
GGTAGGT,0.071,0.106,0.621,1.28,0.0052,1.85,0.158,0.0649,0.0504,0.192
CCTCGTT,-0.0794,-0.21,-0.331,-1.59,-0.175,-0.727,-0.414,-0.17,-0.33,-0.153
TTGCTCG,-0.177,-0.158,-1.07,-0.285,-0.0744,-0.899,-0.13,-0.161,-0.146,-0.177
GCGCGAA,-0.0839,-0.144,-0.419,-0.262,-0.0845,-0.527,-0.0851,-0.0971,-0.222,-0.21
TCATTAC,-0.0848,-0.108,-0.354,-1.85,-0.0442,-1.34,-0.306,-0.212,-0.0906,-0.2
TCAGCAT,0.0828,-0.175,0.0416,0.00428,-0.0858,-0.23,0.0689,-0.0872,0.0837,-0.0367
TGTCCCC,-0.0559,0.0107,0.449,1.31,-0.0921,1.43,-0.465,0.0434,0.101,0.0372
CAGCCAC,0.0592,-0.0244,-0.0432,-0.249,0.0837,-0.506,-0.0123,0.0382,0.0591,0.0472
TACATCA,0.00582,0.0304,-0.025,-2.16,-0.0345,-0.0112,-0.0379,-0.000271,0.19,0.217
TTCACCG,0.0735,0.0512,-0.688,-0.974,0.0964,-0.987,0.128,-0.02,-0.0878,-0.0928
ACGAGAC,0.0381,-0.0352,0.374,0.852,0.00698,0.0405,0.228,0.169,-0.0009,0.0711
GTCATGT,0.00916,0.101,0.365,0.829,0.000332,1.65,0.179,0.182,0.086,0.0665
GCACATC,0.0961,0.0102,0.0936,0.715,-0.115,-0.079,0.109,-0.0714,-0.0702,0.00998
CATCGTA,0.00131,0.0502,-0.336,-1.46,-0.0373,-1.03,-0.0741,-0.0327,0.0686,-0.0626
GATCTAG,0.164,0.0454,-0.368,-0.375,0.136,-0.847,0.224,0.101,0.163,0.116
GAGCTTA,-0.0254,-0.0144,0.122,-0.487,-0.175,0.738,-0.947,-0.102,-0.0885,-0.0848

Sequence,uncleaved DNA left (log2) [1],uncleaved DNA left (log2) [2],uncleaved DNA left (log2) [3],uncleaved DNA left (log2) [4],uncleaved DNA left (log2) [5],uncleaved DNA left (log2) [6],uncleaved DNA left (log2) [7],uncleaved DNA left (log2) [8],uncleaved DNA left (log2) [9],uncleaved DNA left (log2) [10]
AGTATAC,-0.0627,-0.0445,0.0914,-0.244,-0.0292,-0.311,-0.0857,0.0649,-0.0379,0.0169
TGCCCCT,-0.164,-0.101,-0.0127,-0.963,-0.128,0.0626,-0.338,-0.151,0.116,-0.0798
AACCTGC,-0.0687,-0.00534,-0.429,-0.568,0.00428,-0.944,-0.116,-0.0391,-0.00702,0.0008
GAGGGAG,0.236,0.212,0.19,0.721,0.0785,0.181,0.355,0.196,0.13,0.0961
TATTCAG,-0.125,0.0721,-0.693,-0.598,0.0833,-1.24,0.177,-0.00676,0.00258,-0.0971
TAACAAG,0.0326,0.0566,-0.941,-1.57,0.0327,-1.25,0.155,-0.00218,0.0422,0.0891
CTGTATC,-0.1,-0.125,-0.056,-0.0881,-0.253,-0.532,-0.24,-0.125,0.0452,-0.142
CGGGCAT,0.0176,0.036,0.854,1.99,0.000569,2.21,0.191,-0.0741,0.0506,0.0326
CGAGCCG,0.00966,-0.133,-0.702,-0.541,-0.09,-0.885,0.0564,-0.126,-0.0364,-0.207
TGGAGTA,0.09,0.0808,0.256,0.266,-0.051,0.646,-0.0504,-0.0249,0.0791,0.0587
AACCGAG,-0.000993,0.0386,0.585,1.31,-0.0142,0.311,0.184,-0.0186,0.0424,0.119
CCGTTTC,-0.205,-0.144,-0.00133,-0.248,-0.272,-0.527,-0.206,-0.179,-0.292,-0.0729
TTTTCAG,-0.0627,-0.113,-0.726,-0.893,-0.0035,-1.14,0.101,-0.1,0.0383,-0.116
GTCGGCT,0.00192,-0.112,0.164,0.624,-0.0784,0.92,0.0257,-0.103,-0.0531,0.0192
TATCCTC,0.00473,-0.0605,0.016,-0.3,-0.0457,-0.167,-0.122,-0.116,-0.0251,0.0257
ACGGAGA,0.236,0.129,-0.0106,0.362,0.213,-0.491,0.149,0.158,0.0889,-0.0128
CCCCAAC,-0.251,-0.156,-0.275,-1.62,-0.23,-0.921,-0.25,-0.176,-0.351,-0.232
ACGGTCT,-0.094,-0.199,-0.298,-1.5,0.00589,-0.491,-0.0333,-0.0739,-0.142,-0.193
CCCAGAA,0.14,0.0969,0.147,0.0126,0.191,-0.556,0.0116,0.134,0.0321,0.0527
GCACTCC,0.00726,-0.0179,-0.0345,0.363,0.0119,1.06,0.032,-0.068,-0.0694,0.0803

Sequence,uncleaved DNA left (log2) [1],uncleaved DNA left (log2) [2],uncleaved DNA left (log2) [3],uncleaved DNA left (log2) [4],uncleaved DNA left (log2) [5],uncleaved DNA left (log2) [6],uncleaved DNA left (log2) [7],uncleaved DNA left (log2) [8],uncleaved DNA left (log2) [9],uncleaved DNA left (log2) [10]
CAGGGTC,-0.00102,-0.149,0.187,0.647,-0.0488,0.899,-0.0122,-0.0293,-0.0298,-0.0102
ATGACTT,-0.004,-0.0511,-0.000592,0.543,-0.0148,1.01,-0.417,-0.171,-0.097,0.0498
ATATCGC,0.0469,0.00566,-0.729,-0.768,0.0558,-1.08,0.123,-0.0465,0.0479,-0.0142
CCTTTGG,0.0395,-0.0079,-0.507,-0.383,-0.127,-0.956,0.261,0.0725,0.0543,-0.0261
TTCTCGA,-0.00991,0.00408,0.0283,-0.35,0.0091,-0.655,0.0538,-0.0645,-0.0375,0.00514
AGAAATA,-0.0442,-0.0215,0.0415,-0.883,-0.0344,-0.21,-0.131,0.0336,0.0723,0.0168
TTTGACG,0.0173,-0.0203,-0.788,-0.477,0.164,-1.14,0.118,-0.00345,0.124,-0.0955
ACAAACG,-0.104,0.0768,-0.688,0.826,0.0101,-0.17,0.212,-0.0454,-0.0256,-0.023
AAGCGGA,0.0923,0.0318,0.194,0.53,-0.0224,0.253,0.0196,0.164,-0.011,0.0181
ATCGCCC,-0.0475,0.0445,-0.117,-0.126,0.104,-0.33,-0.0701,-0.0723,0.012,-0.0703
TACACAG,0.0458,-0.0328,-0.692,-0.76,-0.0193,-0.98,0.152,-0.121,-0.00304,-0.109
TCTTTTT,-3.03,-0.37,-0.0157,-2.04,0.165,-0.539,-3.38,-0.0546,-0.0777,-0.0454
TTGGGTC,-0.016,0.0293,0.454,0.721,0.0183,0.771,0.0995,-0.0746,0.0989,0.0599
ACGCCAT,0.00479,0.0919,-0.2,-0.313,0.0126,-0.195,0.108,-0.018,0.0338,0.0224
AGTGTTA,-0.155,-0.191,0.0178,0.172,-0.217,0.992,-0.648,-0.0819,-0.0379,0.0319
AGCAGCA,-0.0486,0.12,-0.162,0.0504,-0.0538,-0.231,-0.285,-0.0164,0.0475,0.033
GTAGACT,0.0696,0.117,0.394,0.984,-0.0188,1.92,-0.0122,-0.0197,0.044,0.0563
TGCCTTC,0.0917,0.0478,0.329,0.291,0.0543,0.225,0.0545,0.0373,0.0971,0.0556
CTTAATG,-7.18e-05,0.0338,-0.741,-0.589,0.0687,-1.02,0.0951,0.016,0.0864,-0.072
CTGCCAT,0.115,0.0715,0.0256,-0.176,0.0263,-0.124,-0.00551,0.0191,0.0433,0.0748
